According to the supplement of paper PMC10670038:
Where a name gives a salt, the structure may show the parent alone. ± gives the standard deviation of the averaged measurements. Over roughly 2,000 compounds, “relative cell viability vs DMSO, compound alone” has its median near 1.1; the lowest 2% begin near 0.29. The list shows a part of the results.

Each molecule was assayed on TE10 (assay: relative cell viability vs DMSO, compound alone (fraction); TE10 is an esophageal squamous carcinoma line; higher = less cytotoxic). Details: 2 µM; 48 h.
Experimental: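 TE10 ESCC cells (1,000/well, 384-well plates) were treated with Selleck bioactive library compounds at 2 uM alone for 48 h. Viability was read by CellTiter-Glo and expressed relative to DMSO wells. Two technical replicates (A, B).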

Row | Compound | relative cell viability
1 | O=C(Nc1c(Cl)cncc1Cl)c1ccc(OC(F)F)c(OCC2CC2)c1 [Roflumilast] | 0.989 ± 0.013
2 | CCC(=O)O[C@]1(C(=O)CCl)[C@@H](C)C[C@H]2[C@@H]3C[C@H](F)C4=CC(=O)C=C[C@]4(C)[C@@]3(F)[C@@H](O)C[C@@]21C [Halobetasol Propionate] | 0.928 ± 0.03
3 | CC(=O)N[C@H]1[C@H]([C@H](O)[C@H](O)CO)OC(C(=O)O)=C[C@@H]1NC(=N)N [Zanamivir] | 1.13 ± 0.049
4 | CCN1CC(CCN2CCOCC2)C(c2ccccc2)(c2ccccc2)C1=O (stereo not given) [Doxapram HCl] | 1.15 ± 0.015
5 | OCc1cc(C(O)CNCCCCCCOCCCCc2ccccc2)ccc1O (stereo not given) [Salmeterol Xinafoate] | 1.16 ± 0.075
6 | CC(=O)OCC(=O)[C@@]12N=C(C)O[C@@H]1C[C@H]1[C@@H]3CCC4=CC(=O)C=C[C@]4(C)[C@H]3[C@@H](O)C[C@@]12C [Deflazacort] | 0.923 ± 0.027
7 | C[C@@H](CN1CC(=O)NC(=O)C1)N1CC(=O)NC(=O)C1 [Dexrazoxane HCl (ICRF-187, ADR-529)] | 1.12 ± 0.014
8 | CNCCC(Oc1ccc(C(F)(F)F)cc1)c1ccccc1 (stereo not given) [Fluoxetine HCl] | 1.21 ± 0.04
9 | Cc1nc2n(c(=O)c1CCN1CCC(c3noc4cc(F)ccc34)CC1)CCCC2 [Risperidone] | 1.12 ± 0.036
10 | CNC(=O)Nc1ccc(-c2nc(N3CC4CCC(C3)O4)c3cnn(C4CCC5(CC4)OCCO5)c3n2)cc1 | 0.4519 ± 0.0032
11 | CN1CC2c3ccccc3Oc3ccc(Cl)cc3C2C1 (stereo not given) [Asenapine] | 1.054 ± 0.0068
12 | COC1=C2C[C@@H](C)C[C@H](OC)[C@H](O)[C@@H](C)/C=C(\C)[C@H](OC(N)=O)[C@@H](OC)/C=C\C=C(/C)C(=O)NC(=CC1=O)C2=O [Geldanamycin] | 0.557 ± 0.023
13 | CCC(CC)CC1(C(=O)Nc2ccccc2SC(=O)C(C)C)CCCCC1 | 1.12 ± 0.055
14 | c1ccc2[nH]c(-c3cscn3)nc2c1 [Thiabendazole] | 0.94 ± 0.13
15 | Cn1cc(-c2ccc3nnc(C(F)(F)c4ccc5ncccc5c4)n3n2)cn1 | 0.996 ± 0.15
16 | CC1(C)S[C@@H]2[C@H](NC(=O)[C@H](NC(=O)N3CCN(S(C)(=O)=O)C3=O)c3ccccc3)C(=O)N2[C@H]1C(=O)O [Mezlocillin Sodium] | 1.08 ± 0.021
17 | Cn1c(=O)cc(N2CCC[C@@H](N)C2)n(Cc2ccccc2C#N)c1=O [Alogliptin] | 1.2 ± 0.12
18 | Cc1nnc(C(C)C)n1C1C[C@H]2CC[C@@H](C1)N2CC[C@H](NC(=O)C1CCC(F)(F)CC1)c1ccccc1 (stereo in doubt) [Maraviroc] | 0.983 ± 0.027
19 | CCCCCCCN(CC)CCCC(O)c1ccc(NS(C)(=O)=O)cc1 (stereo not given) [Ibutilide Fumarate] | 1.08 ± 0.021
20 | COc1cc(Nc2ncc(F)c(Nc3ccc4c(n3)N(COP(=O)(O)O)C(=O)C(C)(C)O4)n2)cc(OC)c1OC [Fostamatinib (R788)] | 0.928 ± 0.018
21 | CC(C)c1cc(C(=O)N2Cc3ccc(CN4CCN(C)CC4)cc3C2)c(O)cc1O | 0.629 ± 0.062
22 | COc1cnc(NS(=O)(=O)c2ccc(N)cc2)nc1 [Sulfameter] | 1.09 ± 0.049
23 | O=NN(CCCl)C(=O)NC1CCCCC1 [Lomustine] | 1.08 ± 0.036
24 | COc1cc(CCC(C)=O)ccc1O [Vanillylacetone] | 1.07 ± 0.043
25 | CCCCCCCCc1ccc(CCC(N)(CO)CO)cc1 [Fingolimod (FTY720) HCl] | 0.739 ± 0.06

Row | Compound | relative cell viability
26 | COc1cc(C(=O)NC2CCCNC2)cc(OC)c1OC (stereo not given) [Troxipide] | 1.13 ± 0.016
27 | Nc1ncnc2c1c(-c1cccc(OCc3ccccc3)c1)cn2C1CC(CN2CCC2)C1 (stereo not given) | 1.14 ± 0.038
28 | C[C@]12CC[C@@H]3c4ccc(O)cc4CC[C@H]3[C@@H]1CCC2=O [Estrone] | 0.992 ± 0.1
29 | NC(=S)N/N=C/c1ncccc1N [Triapine] | 1.07 ± 0.071
30 | Nc1cccc2c1CN(C1CCC(=O)NC1=O)C2=O (stereo not given) [Lenalidomide (CC-5013)] | 1.14 ± 0.059
31 | COc1ccc2[nH]c([S+]([O-])Cc3ncc(C)c(OC)c3C)nc2c1 (stereo not given) [Omeprazole] | 1.242 ± 0.011
32 | COc1nc(-c2ccc3c(c2)OCO3)n(-c2ccc(NC(=O)CSc3ccccc3)cc2)n1 [SecinH3] | 1.18 ± 0.014
33 | O=C(Nc1ccc(-c2ccnc(Nc3ccc(N4CCOCC4)cc3)n2)cc1)C1CCCN1 (stereo not given) | 1.108 ± 0.0066
34 | Cc1ccccc1N1C(=O)c2cc(S(N)(=O)=O)c(Cl)cc2NC1C (stereo not given) [Metolazone] | 1.01 ± 0.027
35 | Cc1cc(-n2c(=O)[nH]c(=O)n(C)c2=O)ccc1Oc1ccc(SC(F)(F)F)cc1 [Toltrazuril] | 1.036 ± 0.0076
36 | [I-].[K+] [Potassium Iodide] | 1.07 ± 0.056
37 | O=C(NS(=O)(=O)c1ccc(Br)s1)c1ccc(Cl)cc1Cl [Tasisulam] | 1.08 ± 0.014
38 | C/C(=N\NC(=O)c1cccc(S(=O)(=O)N2CCOCC2)c1)c1cc(Cl)ccc1O | 0.87899 ± 0.00067
39 | COc1ccc(CNC(=O)Nc2ncc([N+](=O)[O-])s2)cc1 | 1.16 ± 0.078
40 | Cn1c2ccccc2c2c3c(c4c5ccccc5n(CCC#N)c4c21)CNC3=O | 1 ± 0.081
41 | OCCOCCN1CCN(C(c2ccccc2)c2ccc(Cl)cc2)CC1 (stereo not given) [Hydroxyzine 2HCl] | 1.1 ± 0.054
42 | Cc1nc(N)sc1-c1ccnc(Nc2ccc(N3CCOCC3)cc2)n1 | 0.9862 ± 0.0045
43 | C[C@]12CC[C@@H]3c4ccc(O)cc4CC[C@H]3[C@@H]1C[C@@H](O)[C@@H]2O [Estriol] | 0.939 ± 0.23
44 | OCC(O)C(O)CO (stereo not given) [Erythritol] | 1.118 ± 0.011
45 | C[C@@H]1CN(CC(=O)Nc2ccc3c(c2)Cc2cccc(-c4cc(=O)cc(N5CCOCC5)o4)c2S3)C[C@H](C)O1 | 1.17 ± 0.021
46 | CCC[C@H](NC(=O)[C@@H]1[C@H]2CCC[C@H]2CN1C(=O)[C@@H](NC(=O)[C@@H](NC(=O)c1cnccn1)C1CCCCC1)C(C)(C)C)C(=O)C(=O)NC1CC1 [Telaprevir (VX-950)] | 1.06 ± 0.069
47 | Cc1noc(NS(=O)(=O)c2ccc(N)cc2)c1C [Sulfisoxazole] | 1.06 ± 0.021
48 | CCc1cccc2c3c([nH]c12)C(CC)(CC(=O)O)OCC3 (stereo not given) [Etodolac] | 1.24 ± 0.061
49 | CC(=O)N1CCN(CCOc2ccc(C3CCN(C4=Nn5c(nnc5C(F)(F)F)CC4)CC3)cc2)CC1 | 1.03 ± 0.016
50 | C=CC(=O)N1CCC[C@@H](n2nc(-c3ccc(Oc4ccccc4)cc3)c3c(N)ncnc32)C1 | 0.887 ± 0.016
